In all, about 360,000 compounds went through this assay and about 16,000 (4.4%) were called active. Inconclusive means that the source gave no clear call. Such entries were picked first, then a sample of the others. Calls follow the shape of the dose curve; as a rule, active = well fitted inhibition curve with a large enough effect; inconclusive = small, poorly fitted or top-dose-only effect; inactive = no such curve, though single readings can be large or run the other way. Where the call is inconclusive, the potency comes from a doubtful curve fit.
What follows are molecules tested against Bromodomain adjacent to zinc finger domain protein 2B (Homo sapiens) (UniProt Q9UIF8) (assay: qHTS Assay for Inhibitors of BAZ2B). Settings: AlphaScreen BAZ2B-H3K14Ac peptide displacement; activity change, negative = inhibition: at 114 µM (top of the series).
UniProt Q9UIF8, sequence (Q9UIF8 whole entry, looked up, the tested form may be a part): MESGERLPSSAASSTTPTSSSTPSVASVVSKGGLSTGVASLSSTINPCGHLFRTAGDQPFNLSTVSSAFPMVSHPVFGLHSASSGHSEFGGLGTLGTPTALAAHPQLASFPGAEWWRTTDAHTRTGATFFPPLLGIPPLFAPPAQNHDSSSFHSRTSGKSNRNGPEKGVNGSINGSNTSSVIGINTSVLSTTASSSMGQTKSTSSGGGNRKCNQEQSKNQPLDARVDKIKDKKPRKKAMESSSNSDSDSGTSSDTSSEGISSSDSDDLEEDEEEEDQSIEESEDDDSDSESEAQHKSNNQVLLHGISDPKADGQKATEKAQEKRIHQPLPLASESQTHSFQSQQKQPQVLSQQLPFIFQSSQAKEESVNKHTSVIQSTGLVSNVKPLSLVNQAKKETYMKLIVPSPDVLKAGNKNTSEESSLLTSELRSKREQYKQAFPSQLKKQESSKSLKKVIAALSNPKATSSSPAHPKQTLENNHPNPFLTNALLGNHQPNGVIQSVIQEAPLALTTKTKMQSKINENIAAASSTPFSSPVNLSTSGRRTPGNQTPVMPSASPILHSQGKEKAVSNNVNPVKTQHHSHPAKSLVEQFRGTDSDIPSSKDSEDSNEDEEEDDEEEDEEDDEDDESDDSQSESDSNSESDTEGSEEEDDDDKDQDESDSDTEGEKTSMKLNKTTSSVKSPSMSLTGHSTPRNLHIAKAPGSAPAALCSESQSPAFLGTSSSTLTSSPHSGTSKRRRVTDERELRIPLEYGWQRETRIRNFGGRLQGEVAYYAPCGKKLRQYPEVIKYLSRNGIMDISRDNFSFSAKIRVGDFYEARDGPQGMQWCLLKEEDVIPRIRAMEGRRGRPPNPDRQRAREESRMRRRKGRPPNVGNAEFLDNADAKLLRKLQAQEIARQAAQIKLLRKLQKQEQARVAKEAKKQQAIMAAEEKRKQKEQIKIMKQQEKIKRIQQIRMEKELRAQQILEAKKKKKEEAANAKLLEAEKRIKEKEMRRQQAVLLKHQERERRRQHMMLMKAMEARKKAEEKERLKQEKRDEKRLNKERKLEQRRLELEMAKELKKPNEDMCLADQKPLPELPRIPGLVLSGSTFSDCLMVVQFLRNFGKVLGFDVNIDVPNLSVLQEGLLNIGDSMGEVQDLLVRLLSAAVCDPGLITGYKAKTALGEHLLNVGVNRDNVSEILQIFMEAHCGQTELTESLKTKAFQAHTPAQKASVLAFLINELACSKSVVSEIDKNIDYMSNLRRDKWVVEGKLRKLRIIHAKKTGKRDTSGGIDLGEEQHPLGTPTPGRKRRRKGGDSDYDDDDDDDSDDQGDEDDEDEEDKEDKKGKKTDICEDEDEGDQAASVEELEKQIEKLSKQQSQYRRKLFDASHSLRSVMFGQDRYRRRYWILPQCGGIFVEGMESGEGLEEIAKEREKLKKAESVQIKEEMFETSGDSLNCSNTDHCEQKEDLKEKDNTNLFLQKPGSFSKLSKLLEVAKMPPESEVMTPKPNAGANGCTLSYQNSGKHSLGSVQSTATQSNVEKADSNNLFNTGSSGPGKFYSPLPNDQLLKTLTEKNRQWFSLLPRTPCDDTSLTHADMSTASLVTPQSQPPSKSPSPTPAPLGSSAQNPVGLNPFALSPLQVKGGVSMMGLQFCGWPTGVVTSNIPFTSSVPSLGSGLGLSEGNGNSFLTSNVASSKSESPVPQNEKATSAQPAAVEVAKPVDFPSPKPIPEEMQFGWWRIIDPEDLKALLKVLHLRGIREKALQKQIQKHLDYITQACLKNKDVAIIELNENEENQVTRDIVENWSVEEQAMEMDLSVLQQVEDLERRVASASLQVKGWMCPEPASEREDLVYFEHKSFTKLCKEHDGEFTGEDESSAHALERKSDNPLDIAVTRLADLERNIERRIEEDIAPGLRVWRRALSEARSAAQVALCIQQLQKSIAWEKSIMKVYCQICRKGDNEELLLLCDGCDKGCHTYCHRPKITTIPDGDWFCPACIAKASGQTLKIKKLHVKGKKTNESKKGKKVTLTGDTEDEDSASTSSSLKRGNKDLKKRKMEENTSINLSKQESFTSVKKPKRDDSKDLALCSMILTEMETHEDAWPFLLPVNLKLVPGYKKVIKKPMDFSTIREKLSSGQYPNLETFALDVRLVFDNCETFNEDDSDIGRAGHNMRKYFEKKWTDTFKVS
In short: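 AlphaScreen luminescence quantifies BAZ2B engagement of H3K14Ac peptide; the protein and biotinylated peptide are both at 50 nM final, buffer PBS pH 7.4 with 0.01% Tween-20, all steps at room temperature.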
% is scaled to controls: 0 for no effect and ±100 for the full control effect; potency is read from the fitted curve at half-maximal effect; tags tell the direction and shape of the fitted curve.
Also: nearly all actives have a fitted effect of over 60% in size.

Structure (SMILES) | Potency | activity change, negative = inhibition
Cc1ccc2nc(Cl)c(C3CC(c4cccs4)=NN3C(=O)CCC(=O)O)cc2c1 (stereo unspecified) | inconclusive: 89.1 µM [inhibitor, single point] | 
NC1=NC2CS(=O)(=O)CC2S1 (stereo unspecified) | inconclusive: 89.1 µM [inhibitor, single point] | 
CCc1ccc(NC(=O)CS(=O)CC(=O)NCCCc2ccccc2)cc1 (stereo unspecified) | inconclusive: 89.1 µM [inhibitor, single point] | 
N#CC(C#N)=C1C=CC=CN1/C(=C\c1ccco1)C(=O)c1ccc(Cl)cc1 | inconclusive: 20 µM [inhibitor, full curve] | 
COc1ccc([N+](=O)[O-])cc1-n1cnnn1 |  | inactive: -14.4%
COc1ccc(C(=O)Nc2ccccc2)cc1NC(=O)c1ccc([N+](=O)[O-])cc1 |  | inactive: -33.2%
O=c1c2ccccc2oc2ccc(NCCCn3ccnc3)cc12 | active: 50.1 µM | 
CC1Cc2ccccc2N1C(=O)COC(=O)c1ccccc1NCCO (stereo unspecified) | inconclusive: 89.1 µM [inhibitor, single point] | 
N#Cc1nc(-c2cccs2)oc1N1CCN(Cc2ccccc2)CC1 | active: 25.1 µM | 
Cc1cc(=O)[nH]c(N/N=C/c2ccc(Br)s2)n1 |  | inactive: -2.09%
Cc1ccccc1Nc1nnc(SCC(=O)Nc2ccccc2[N+](=O)[O-])s1 | inconclusive: 44.7 µM [inhibitor, partial curve] | 
Oc1ccccc1-c1nc(NCc2ccco2)c2ccccc2n1 |  | inactive: -12.4%
O=C(O)c1ccc(N=Nc2c(O)[nH]c3ccc(Br)cc23)cc1 | active: 79.4 µM | 
CC1(C)CC(=O)c2sc(NS(=O)(=O)Cc3ccccc3)nc2C1 |  | inactive: 4.08%
COc1ccc(Cl)cc1/C=C1/C(=O)ON=C1C |  | inactive: -27.3%
COc1ccc(OC)c(NC(=O)c2cc3n(n2)C(C(F)(F)F)CC(c2ccc4c(c2)OCO4)N3)c1 (stereo unspecified) | inconclusive: 50.1 µM [inhibitor, partial curve] | 
S=c1[nH]nc(COc2ccc(Cl)cc2)n1Cc1ccco1 | inconclusive: 50.1 µM [inhibitor, partial curve] | 
O=C1/C(=C/c2cccc(F)c2)SC(=S)N1NS(=O)(=O)c1ccccc1 | inconclusive: 39.8 µM [inhibitor, partial curve] | 
CC1CN(C(=O)C(C)N2CCN(c3cccc(Cl)c3)CC2)CC(C)O1 (stereo unspecified) |  | inactive: -2.83%
C[C@H](NC(=O)c1ccc2ccccc2c1)C(=O)N1CCC2(CC1)NCCc1[nH]cnc12 | inconclusive: 89.1 µM [inhibitor, single point] | 
O=C1NN(c2ccccc2)C(=O)/C1=C\c1ccccc1 |  | inactive: -20.7%
CN(C)S(=O)(=O)c1cc(NC(=O)CN2CCN(c3ccccc3O)CC2)ccc1Cl | inconclusive: 79.4 µM [inhibitor, single point] | 
Cc1cccc(Nc2n[nH]c(=S)s2)c1C | active: 44.7 µM | 
CCOC(=O)N1CCN(C(=O)CSc2nc(=O)n3ccc(C)cc3n2)CC1 |  | inactive: 6.01%
O=C(CCSCCc1ccccn1)Nc1ccccc1C(F)(F)F |  | inactive: 5.39%
Cn1c(Cc2ccccc2)n[nH]c1=S |  | inactive: 4.62%

Structure (SMILES) | Potency | activity change, negative = inhibition
O=S(=O)(NC1CCCC1)c1cccc(S(=O)(=O)N2CCC(n3nnc4ccccc43)CC2)c1 | inconclusive: 89.1 µM [inhibitor, single point] | 
CCOc1ccc(-c2cc(C(=O)NCCCn3ccnc3)c3ccccc3n2)cc1 | inconclusive: 79.4 µM [inhibitor, single point] | 
O=C(COCc1cc(-c2ccc(F)cc2)on1)Nc1cc(Cl)cc(Cl)c1 |  | inactive: 8.01%
CCCN1C(=O)c2cc(C(=O)Nc3ccc(OC)c(OC)c3)ccc2C1Nc1ccc(OC)c(OC)c1 (stereo unspecified) |  | inactive: -6.58%
Cn1c(SCC(=O)N2CCc3ccccc32)nnc1-c1ccc(S(=O)(=O)N2CCCC2)cc1 |  | inactive: 7.04%
COc1ccc(N2CCN(C(=O)c3c(C)oc4ncn(CC(C)C)c(=O)c34)CC2)cc1 |  | inactive: 2.82% [at 57.1 µM]
Cc1ccc2nc3sc(C(=O)Nc4ccc(F)cc4)cc3cc2c1 | inconclusive: 89.1 µM [inhibitor, single point] | 
Cc1ccc2cc(CN(Cc3ccco3)C(=O)c3ccco3)c3nnnn3c2c1 | inconclusive: 56.2 µM [inhibitor, partial curve, poor fit] | 
CCOC(=O)c1cc(S(=O)(=O)N2CCN(c3cccc(C)c3)C(C)C2)[nH]n1 (stereo unspecified) | inconclusive: 44.7 µM [inhibitor, partial curve] | 
CN(CC(=O)N1CCCCC1)S(=O)(=O)c1cccc2cccnc12 |  | inactive: -5.81%
CCCC1CC(C)(c2csc(Nc3ccc(OCC)cc3)n2)OC1=O (stereo unspecified) | inconclusive: 56.2 µM [inhibitor, single point] | 
O=C(NCc1cccnc1)c1ccc2c(=O)n(CCCN3CCCC3=O)c(=S)[nH]c2c1 | inconclusive: 89.1 µM [inhibitor, single point] | 
CCn1c(=O)cc(OCC(=O)NCCCN2CCN(c3cccc(Cl)c3)CC2)c2ccccc21 | inconclusive: 39.8 µM [inhibitor, single point] | 
Nn1cc(-c2ccccc2)nc1SCC(=O)NCC(F)(F)F | inconclusive: 89.1 µM [inhibitor, single point] | 
CC(=O)c1ccc(OCC(=O)NCc2ccc(F)cc2)cc1 | inconclusive: 89.1 µM [inhibitor, single point] | 
COc1ccc(/C=C/C(=O)c2ccccn2)cc1 | inconclusive: 63.1 µM [inhibitor, partial curve, poor fit] | 
COc1ccc(N2CCN(CCC(=O)c3ccc4ccccc4c3)CC2)cc1 | inconclusive: 17.8 µM [inhibitor, full curve] | 
COc1ccccc1N1CCN(/N=C/c2ccc(Cl)c([N+](=O)[O-])c2)CC1 | active: 17.8 µM | 
COc1ccccc1N1CCN(Cc2ccco2)CC1 | inconclusive: 100 µM [inhibitor, single point] | 
CCOc1ccc(C(=O)OCC(=O)N2CC(C)OC(C)C2)cc1OCC (stereo unspecified) |  | inactive: -1.89%
COc1ccc(-c2cc(C(F)(F)F)nc(SCC(=O)NCc3ccco3)n2)cc1OC |  | inactive: 18.8%
CC1CCC2C(C1)Nc1c(C(=O)O)cccc1C2(C)C (stereo unspecified) | active: 79.4 µM | 
Cc1cccc(CC2S/C(=N/N=C/c3ccco3)N(c3ccccc3)C2=O)c1 (stereo unspecified) | inconclusive: 79.4 µM [inhibitor, single point] | 
C=CCn1c(SCc2ccccc2)nc(O)cc1=O |  | inactive: 1.44%
CN(C)c1oc(-c2ccc(OCc3ccc(Cl)cc3)cc2)nc1C#N | inconclusive: 39.8 µM [inhibitor, partial curve] | 
CN(C)CCn1c(NC(=O)c2ccc(Cl)cc2)nc2ccccc21 | inconclusive: 89.1 µM [inhibitor, single point] | 

Structure (SMILES) | Potency | activity change, negative = inhibition
COc1cc2cc3c(N)c(C(=O)NCc4ccco4)sc3nc2cc1OC |  | inactive: -4.06%
CCOC(=O)c1sc(NC(=O)c2ccccc2C(=O)O)c(C(=O)OCC)c1C |  | inactive: -15.5%
COc1cccc(/C=N/Nc2cc(N3CCOCC3)ncn2)c1O | active: 2.82 µM | 
COc1ccc(NC(=O)c2oc3ccccc3c2NC(=O)c2cc(=O)c3ccccc3o2)cc1 |  | inactive: -2.64%
COc1ccc(OC)c(NS(=O)(=O)c2ccc(Cl)s2)c1 |  | inactive: 6.59%
O=C(Oc1c(CN2CCOCC2)cc(Cl)c2cccnc12)c1ccccc1Cl | active: 11.2 µM | 
[O-]/C(=C(\C(=S)NCCN1CCOCC1)[n+]1ccccc1)c1ccc(Cl)s1 | inconclusive: 89.1 µM [inhibitor, single point] | 
CC(C)(C)OC(=O)NCCCCCNC(=O)c1[nH]cnc1C(=O)Nc1ccon1 | active: 56.2 µM | 
CCc1ccc(CCC(=O)Nc2ccccc2C(=O)O)o1 | inconclusive: 44.7 µM [inhibitor, partial curve] | 
COC(=O)C1=C(C)NC(=O)/C1=C\c1cc(C)n(-c2ccccc2)c1C | inconclusive: 50.1 µM [inhibitor, partial curve] | 
O=[N+]([O-])c1cccc2ccc(/C=C/c3ccc(C(F)(F)F)cc3)nc12 |  | inactive: -5.95%
Cc1nc2ncnn2c(N2CCN(c3cccc(C(F)(F)F)c3)CC2)c1C | inconclusive: 89.1 µM [inhibitor, single point] | 
S=c1[nH]nc(COc2ccccc2)n1/N=C/C(Cl)=C/c1ccccc1 | inconclusive: 39.8 µM [inhibitor, full curve, poor fit] | 
CCOC(=O)c1cnc2c(OC)cccc2c1N1CCN(c2ccccc2F)CC1 | inconclusive: 50.1 µM [inhibitor, partial curve] | 
COCc1cc(=O)[nH]c(Nc2nc3ccccc3o2)n1 | active: 39.8 µM | 
Cc1ccc(S(=O)(=O)/N=C2/NC(=O)/C(=C/c3ccncc3)S2)cc1 |  | inactive: -10.8%
CCc1c(C)sc(NC(=S)N2CCN(C(=O)C3CCCO3)CC2)c1C(=O)OC (stereo unspecified) | inconclusive: 79.4 µM [inhibitor, partial curve] | 
CCOc1ccc(C(=O)N/N=C/c2cc([N+](=O)[O-])cs2)cc1 | inconclusive: 100 µM [inhibitor, single point] | 
Cc1cc(C)c2c(n1)sc1c(N3CCN(CCO)CC3)ncnc12 |  | inactive: 3.07%
CC(=O)CCc1ccc(OCC(O)CNC2CCCc3ccccc32)cc1 (stereo unspecified) | inconclusive: 79.4 µM [inhibitor, single point] | 
CCOc1ccc(-c2nnc3ccc(SCC(=O)N4CCCCC4)nn23)cc1 |  | inactive: 7.66%
CC(=O)Nc1ccc(Nc2nc(C)c([N+](=O)[O-])c(N(C)c3ccccc3)n2)cc1 | inconclusive: 79.4 µM [inhibitor, partial curve] | 
CC(Sc1nnc(CC(C)c2ccccc2)n1N)C(N)=O (stereo unspecified) |  | inactive: -23.7%
Cc1cc(NC(=O)CCN2CCN(CCO)CC2)ccc1Br | inconclusive: 89.1 µM [inhibitor, single point] | 

Source: PubChem BioAssay AID504333 (National Center for Advancing Translational Sciences (NCATS), 2011)
